Experimental data as given in ChEMBL document CHEMBL4888484, “Replenishing the malaria drug discovery pipeline: Screening and hit evaluation of the MMV Hit Generation Library 1 (HGL1) against asexual blood stage Plasmodium falciparum ,using a nano luciferase reporter read-out” (2022).
In all, about 150,000 compounds went through this assay and about 540 (0.36%) showed an effect of 50% or more. The list shows a part of the results.

What follows are compounds tested on Plasmodium falciparum (assay: Primary screen in NF54 nanoGlo assay, in single point, at 2uM, 72h; a lower Z score goes with more inhibition). Conditions: timepoint 72 hour.
Format: functional, Erythrocyte
In the case of `CN1CCN(c2nc(-c3ccccc3)ns2)C[C@@]12CCOC2`, the “% Inhibition” value is reported as -8% and the Z score is reported as 1.32. For `Cn1cc(CNc2cccc(OCCn3cccn3)c2)cn1`, the “% Inhibition” value was -7% and the Z score was 0.84. For `CC(C)(NC(=O)c1ccc(-n2cnnn2)cc1Cl)C1CC1`, the “% Inhibition” value was -15% and the Z score was 2.47. With `O=C(NCc1nnc(C2CC2)s1)C1C2CCCC21` (stereo not drawn) the “% Inhibition” value was -5% and the Z score was 0.98. `O=C(Nc1cc(-c2ccsc2)no1)c1ccc2c(c1)OCO2` was tested, and the “% Inhibition” value was -13% and the Z score was 1.26. For `COc1ccccc1NC(=O)CN1CCC2(CCC(=O)N2C)CC1`, the “% Inhibition” value was -6% and the Z score was 0.77. For `CC(=O)N[C@@H]1CC[C@H]2CCOc3ccccc3C(=O)N3CCN(Cc4ccncc4)C[C@H]3C(=O)NC[C@H]1O2`, the “% Inhibition” value was -14% and the Z score was 2.31. For `CC(=O)NC1CN(S(=O)(=O)c2sc(C)nc2C)C1`, the “% Inhibition” value was -4% and the Z score was 0.52. In the case of `C[C@H](NS(=O)(=O)N1CCN(C)CC1)c1cccnc1`, the “% Inhibition” value is reported as -11% and the Z score is reported as 2.2. With `Cc1noc2ncc(NC(=O)CCCn3cncn3)cc12` the “% Inhibition” value was -5% and the Z score was 1.07. For `CCN(C(=O)c1cc2c(cc1OC)CCC2)[C@H]1CCS(=O)(=O)C1`, the “% Inhibition” value was -1% and the Z score was 0.25. `c1ccc(-n2nnnc2NC2CCN(CC3CC3)CC2)cc1` was tested, and the “% Inhibition” value was -12% and the Z score was 1.64. `COCc1nsc(N2CCC3(CC2)C[C@@H]3C(=O)N2CCCC2)n1` was tested, and the “% Inhibition” value was -9% and the Z score was 1.4. For `CCCc1nc(CN(CC)Cc2cc(C)c(OC(C)=O)c(C)c2)no1`, the “% Inhibition” value was -9% and the Z score was 1.25. With `Cc1nc(C)c(Cn2cnccc2=O)s1` the “% Inhibition” value was 6% and the Z score was -0.74. In the case of `COc1ccc(-c2ccc3[nH]c(=O)c(C(=O)O)cc3c2)cc1`, the “% Inhibition” value is reported as 1% and the Z score is reported as -0.17. With `CCOC(=O)c1cc(-c2ccccc2)n(-c2cccc(C(=O)NCc3ccc(OC)cc3)c2)c1C` the “% Inhibition” value was 15% and the Z score was -1.74. In the case of `Cc1noc(C[C@H]2CCOC3(CCN(C(=O)c4ccc5ccccc5n4)CC3)C2)n1`, the “% Inhibition” value is reported as -11% and the Z score is reported as 1.54. In the case of `Cc1cnn(C[C@H]2CCCN2c2nccc(C(F)(F)F)n2)c1`, the “% Inhibition” value is reported as 2% and the Z score is reported as -0.29. `CC(C)c1nncn1CCNC(=O)c1cccc(-n2cccn2)n1` was tested, and the “% Inhibition” value was -10% and the Z score was 0.96. `COCCCNC(=O)[C@]1(C)Cn2nc(-c3ccccc3)cc2C(=O)N1Cc1ccccc1OC` was tested, and the “% Inhibition” value was 4% and the Z score was -0.71. With `Cc1cc(C(=O)N2CC(C)N(CC#N)C(C)C2)ns1` (stereo not drawn) the “% Inhibition” value was 12% and the Z score was -1.42. For `Cc1nc[nH]c1C(=O)N1CCC[C@@]2(CCC(=O)N(Cc3ccccc3)C2)C1`, the “% Inhibition” value was -13% and the Z score was 1.96. For `C[C@@H]1CN(C(=O)CN2CCCn3nc(C#N)cc3C2)C[C@H](C)O1`, the “% Inhibition” value was -5% and the Z score was 0.89. For `O=C(c1n[nH]c2c1CCc1ccccc1-2)N1CCCCCC1`, the “% Inhibition” value was -15% and the Z score was 1.3. With `CC[C@@H](C(=O)N1CCc2cnccc21)N1CCCC1=O` the “% Inhibition” value was -11% and the Z score was 1.07. In the case of `CN(C(=O)Cc1ccc(F)c(F)c1)c1ccc(-c2ccccc2)nn1`, the “% Inhibition” value is reported as -14% and the Z score is reported as 1.64. `Cc1ccc(S(=O)(=O)/N=C(\CN2CCOCC2)N2CCCN(S(=O)(=O)c3ccc(C)cc3)[C@H]2C(C)C)cc1` was tested, and the “% Inhibition” value was -3% and the Z score was 0.41. For `Cc1cc(C)n(CCC(=O)N2CC(F)(F)C[C@H]2c2nc(C)no2)n1`, the “% Inhibition” value was -4% and the Z score was 0.75. With `CN(CC1(C)CCOCC1)C(=O)c1ccc(Cl)s1` the “% Inhibition” value was 12% and the Z score was -2.01. In the case of `CC1CN(C(=O)c2cc(-c3cccs3)nc3ccccc23)CC(C)O1` (stereo not drawn), the “% Inhibition” value is reported as 5% and the Z score is reported as -0.44. For `COc1ccc(CCN[C@H](C(=O)NC(N)=O)C(C)C)cc1OC`, the “% Inhibition” value was 1% and the Z score was -0.16. For `Cc1nc(CN[C@@H](c2cccc(F)c2)c2cccc(Cl)c2)no1`, the “% Inhibition” value was -16% and the Z score was 2.06. With `CC(CNC(=O)N1CCC2(CCCC2)C1)N1CCOCC1C` (stereo not drawn) the “% Inhibition” value was -6% and the Z score was 0.86. With `COc1cccc([C@@H]2CCCCN2C(=O)c2nc(N3CCCC3)nc3c2CCCC3)c1` the “% Inhibition” value was -16% and the Z score was 2.47. For `COC(=O)c1ccc(C)c(NC(=O)N(C)Cc2nc(C)c[nH]2)c1`, the “% Inhibition” value was 2% and the Z score was -0.22. With `O=C(c1cc(COc2cccc3cccnc23)on1)N1CCCCCCC1` the “% Inhibition” value was -7% and the Z score was 0.9. With `CC[C@@H](NC(=O)c1ccc(C)c(B2OC(C)(C)C(C)(C)O2)c1)C(N)=O` the “% Inhibition” value was -7% and the Z score was 1.25. For `Nc1nc(CCNC(=O)[C@@H]2Cc3ccccc3C(=O)N2)cs1`, the “% Inhibition” value was 5% and the Z score was -1.01. `Cc1n[nH]c([C@H]2CCN(Cc3ccccc3C#N)C[C@H]2NC(=O)CN(C)C)n1` was tested, and the “% Inhibition” value was -17% and the Z score was 2.25. With `N#Cc1ccccc1NC(=O)COc1ccc(OCc2ccccc2)cc1` the “% Inhibition” value was -8% and the Z score was 0.66. With `CCNC(=O)CNS(=O)(=O)c1c(Cl)cc(Cl)cc1Cl` the “% Inhibition” value was -13% and the Z score was 2.57. `COc1ccc(-n2ncc(C(=O)N3CCN(C4CCCCC4)CC3)c2C2CCN(C(=O)OC(C)(C)C)CC2)cc1` was tested, and the “% Inhibition” value was -14% and the Z score was 2.14. In the case of `O=C1NC2(CCCC2)C(=O)N1Cc1ccc(-n2cccn2)cc1`, the “% Inhibition” value is reported as -5% and the Z score is reported as 0.86. `O=C(NCCCn1c(-c2ccc(F)cc2)nc2cccnc21)Nc1ccc(Br)cc1F` was tested, and the “% Inhibition” value was -16% and the Z score was 1.41. In the case of `CC[C@H](C)N(CC(=O)N(Cc1ccc(F)cc1)Cc1cccs1)S(=O)(=O)c1ccc2ccccc2c1`, the “% Inhibition” value is reported as -3% and the Z score is reported as 0.32. For `Cc1ccc(NC(=O)c2c(O)c3ccccc3n(-c3ccccc3)c2=O)cc1C`, the “% Inhibition” value was -4% and the Z score was 0.68. In the case of `O=C1CCC2(CCN([C@H]3CCN(c4ccccc4)C3)CC2)CN1`, the “% Inhibition” value is reported as -8% and the Z score is reported as 1.62. `CCn1ncc(Cl)c1C(=O)N1N=CC[C@]1(O)C(F)(F)F` was tested, and the “% Inhibition” value was 3% and the Z score was -0.53. `C[C@H](NC(=O)CNC(C)(C)C)c1ccc(F)cc1F` was tested, and the “% Inhibition” value was -4% and the Z score was 0.48. With `Cc1ccc(NC(=O)Cn2c(=O)n(C3CC3)c(=O)c3nscc32)cc1C` the “% Inhibition” value was -8% and the Z score was 1.06. `CC1CN(C(=O)C(C)OCC2CC2)CC(C)(C)O1` (stereo not drawn) was tested, and the “% Inhibition” value was 6% and the Z score was -0.67. For `CCc1cc(-c2[nH]nc(C)c2-c2nc3ccccc3n2C)c(O)cc1O`, the “% Inhibition” value was -7% and the Z score was 0.67. `O=C(c1c[nH]nc1-c1c(F)cccc1F)N1CCc2cnccc21` was tested, and the “% Inhibition” value was 6% and the Z score was -1.01. `Cc1ccc(-c2nc(S(=O)(=O)c3ccc4c(c3)OCCO4)c(N3CCC(C(N)=O)CC3)o2)cc1` was tested, and the “% Inhibition” value was -14% and the Z score was 1.89. For `CC1(C)CN(C(=O)CCCc2nnn[nH]2)[C@H]2CCC[C@H]21`, the “% Inhibition” value was -7% and the Z score was 1.47. `Oc1ccccc1C1=NN(c2nc(-c3cccc(Cl)c3)cs2)[C@H](c2ccccc2)C1` was tested, and the “% Inhibition” value was 3% and the Z score was -0.4. For `CCOC(=O)[C@@H]1CCCCN1C1CCC(c2ccccc2)CC1` (stereo partly drawn), the “% Inhibition” value was -11% and the Z score was 2.11. With `CCCCN(CC)c1ccc(C(=O)O)cc1` the “% Inhibition” value was -1% and the Z score was 0.1. In the case of `C[C@H](NCc1ncccc1F)c1cccs1`, the “% Inhibition” value is reported as 4% and the Z score is reported as -0.54. For `CC(C)[C@H](C)N(Cc1ccco1)C(=O)c1ccncc1Cl`, the “% Inhibition” value was -10% and the Z score was 1.25. `CC1CN(Cc2ccccc2)CCC1NC(=O)C1CC2CCC1O2` (stereo not drawn) was tested, and the “% Inhibition” value was -8% and the Z score was 0.72. With `Cc1ccc(CNC(=O)[C@@H](C#N)C(=O)CCn2ccccc2=O)cc1` the “% Inhibition” value was -6% and the Z score was 0.69. With `CC(CO)NC(C)CCc1ccc(OC(F)F)cc1` (stereo not drawn) the “% Inhibition” value was 2% and the Z score was -0.4. For `CCC(C)[C@H](NC(=O)N1CCCC1)C(=O)N(CCOC)CCOC` (stereo partly drawn), the “% Inhibition” value was -2% and the Z score was 0.32. In the case of `CCCN(CCC)S(=O)(=O)NCCn1ccc(=O)[nH]c1=O`, the “% Inhibition” value is reported as -8% and the Z score is reported as 1.17. For `COC[C@@](C)(O)CNC(=O)c1c(C)cc(C)cc1C`, the “% Inhibition” value was -12% and the Z score was 1.81. `c1c[nH]c([C@@H]2CCCCN2CC2CCC2)n1` was tested, and the “% Inhibition” value was -5% and the Z score was 0.87. In the case of `COC[C@]1(O)CCOC2(CCN(Cc3ccc(C#N)cc3)CC2)C1`, the “% Inhibition” value is reported as -11% and the Z score is reported as 1.91. `C[C@@]1(C(=O)NCCc2ncc[nH]2)CCCCO1` was tested, and the “% Inhibition” value was -9% and the Z score was 0.79. For `Cc1cncc(CCc2nc(-c3ccn(C)n3)no2)c1`, the “% Inhibition” value was -5% and the Z score was 0.63. In the case of `Cc1cccc(-n2nc(-c3nc(-c4cccc(Cl)c4)no3)c3ccccc3c2=O)c1`, the “% Inhibition” value is reported as 21% and the Z score is reported as -2.4. In the case of `O=C(Nc1nc2c(s1)CN(Cc1ccccc1)CC2)[C@@H]1COc2ccccc2O1`, the “% Inhibition” value is reported as -4% and the Z score is reported as 0.47. In the case of `O=C(CC1CCCCC1)NC1CCN(Cc2cncs2)CC1`, the “% Inhibition” value is reported as 13% and the Z score is reported as -1.38. For `O=C(Cn1cnc2ccccc2c1=O)Nc1ccc(Cl)cn1`, the “% Inhibition” value was -7% and the Z score was 0.85. For `COc1ccc(-c2csc3ncnc(N4CCC[C@H](CN(C)Cc5cccnc5)C4)c23)cc1`, the “% Inhibition” value was 0% and the Z score was -0.02. In the case of `CC(C)(C)c1cn(C[C@H]2CCCN(C(=O)c3ccc4c(c3)CCO4)C2)nn1`, the “% Inhibition” value is reported as 8% and the Z score is reported as -1.37. In the case of `CCC(C)c1csc(NC(=O)NC2CCC(=O)N(C)C2)n1` (stereo not drawn), the “% Inhibition” value is reported as -1% and the Z score is reported as 0.21. In the case of `CC1=CC(C)=Nc2cc(S(=O)(=O)N3CCOCC3)ccc2N1`, the “% Inhibition” value is reported as -1% and the Z score is reported as 0.12. With `COc1ccc(CN2C(=O)N[C@@](NC(=O)CCc3ccccc3)(C(F)(F)F)C2=O)cc1` the “% Inhibition” value was -3% and the Z score was 0.37. In the case of `CN(C)c1ccc(NC(=O)c2ccc3c4c(cccc24)CC3)cn1`, the “% Inhibition” value is reported as 2% and the Z score is reported as -0.32. For `CC(=O)c1cc(CN2CCC3(CCC(=O)N(C4CC4)C3)CC2)n(C)c1`, the “% Inhibition” value was 3% and the Z score was -0.24. `Cc1noc(C)c1CCC(=O)N(C)Cc1csc(-c2cccs2)n1` was tested, and the “% Inhibition” value was -11% and the Z score was 2.06. `COc1cccc(N2CCN(Cc3[nH]cnc3C)[C@@H](C)C2=O)c1` was tested, and the “% Inhibition” value was -9% and the Z score was 1.8.
